In the supplement of paper PMC11417369:
± gives the standard deviation of the averaged measurements. Some of the results follow.

The sequences below were run on PfAP2-LT AP2 domain (GST-tagged) (assay: gcPBM binding intensity (ln(normalized median fluorescence intensity)); higher = stronger DNA binding).
Outline: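 The binding buffer was 1× PBS containing 1% milk, 0.2 mg/ml BSA, 0.5% salmon testes DNA and 0.03% Triton X-100. In it, GST-tagged P. falciparum DNA-binding domains expressed in E. coli were applied for 1 h to an Agilent 4 × 180k array of primer-extended double-stranded 36-bp intergenic genomic probes plus negative controls. Binding intensity, read with Alexa488 anti-GST antibody and a 488 nm scan, is the highest Masliner-normalised natural-log median intensity across replicate spots of either probe orientation.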

Row | Sequence | gcPBM binding intensity (ln)
1 | AATATATATATATGTGCACACATATATAATATGTAT [CACACA_site716] | 9.84 ± 0.3
2 | AAAAAAAATAATGTTGCACACAACAACAAACAAAAA [CACACA_site3290] | 9.04 ± 0.59
3 | TTTCATAAATAATAAAATAAAATATGAAGCAAAAGG [CACACA_negctrl_site1767] | 8.61 ± 0.47
4 | TAATTTTTTTAAGAGAGTACATGACTCAACAGTTTA [XGTACX_site3103] | 8.18 ± 0.35
5 | TTTTTTTTTTTTTGGAGTACATGTTTATAACATAAT [XGTACX_site1799] | 8.4 ± 0.48
6 | TTATATCCAACTTGAAAAAAGGTATATGTTTATATA [CACACA_negctrl_site1746] | 8.4 ± 0.44
7 | TGCTCTAATTTATATACACACAAATATGTACACATA [CACACA_site7845] | 9.15 ± 0.34
8 | ACAAACAAATAAATATGTACGAATAAATAAAATTTT [XGTACX_site4664] | 8.82 ± 0.41
9 | CTTTTAGAATAATCAGTGCAAAAAAAAAAAAAAAAA | 8.42 ± 0.38
10 | TTTTTTTTCAAAAATACAAAAAAAAAAGAAAAAAAC [CACACA_negctrl_site625] | 8.5 ± 0.4
11 | GATAATACATAAATTTATAAGTGGAAGAATAAATAA [CACACA_negctrl_site698] | 8.79 ± 0.49
12 | GAAATATTACAAAGTACATGCAACGAAAATTTCAGT [TGCATGCA_site608] | 8.99 ± 0.26
13 | ATTACATTTTTAATGCGTACTAAAAATGTATATAAG [XGTACX_site6384] | 8.53 ± 0.38
14 | AATATAAAAATGTTTACACACACACCCAAATATATT [CACACA_site2511] | 9.61 ± 0.18
15 | AGAATTACTTAAAAAAGTACATAAAATTATTTAAAA [XGTACX_site2205] | 8.35 ± 0.6
16 | AATACACCCAGACACACACACAAAAAAAAAAAAAAA [CACACA_site513] | 9.53 ± 0.61
17 | TTTGAATCCTTATATACACACATTATGTAATATTAT [CACACA_site561] | 8.96 ± 0.5
18 | AAAAGAGAAATGGGCACACACACACCGATTATATAT [CACACA_site4942] | 9.9 ± 0.42
19 | ATATATATATTAAATACACACATTTTTGATTAGGTT [CACACA_site3119] | 8.97 ± 0.33
20 | TTATTATCTCTTGTCATTATTATATACTAAGAAGTA [CACACA_negctrl_site410] | 8.51 ± 0.52
21 | AATATGAAATATATTACACACATTTATATGTTGAAA [CACACA_site1427] | 8.8 ± 0.41
22 | AAAGATTTAGAAAATGAACACACGAGCACCCACCGA [CACACA_site1017] | 9.43 ± 0.11

Row | Sequence | gcPBM binding intensity (ln)
23 | GAAAGAGAGATATATACACACATATTTATATTTTTA [CACACA_site7057] | 8.88 ± 0.45
24 | ATATTAAGAATGTATACATGCATATATATATAGTAC [TGCATGCA_site219] | 9.08 ± 0.35
25 | TTCGTTAAAAATAAATGTACATAAATAAACCTTATT [XGTACX_site621] | 8.51 ± 0.44
26 | ATTTTAATAAACACTTACATGTTTTCCAAATTGTAT [CACACA_negctrl_site1807] | 8.77 ± 0.4
27 | TATTAATAAATATGTTTACACACGAAAATACATTTT [CACACA_site1012] | 8.75 ± 0.42
28 | TCTAATTATCACATTGCACACACATTTCCTTTTACA [CACACA_site9140] | 9.63 ± 0.28
29 | TAATTAATTTATGTAACACACATTGTTGATTCAATA [CACACA_site1098] | 8.77 ± 0.4
30 | TTATACTGTATAGTCGCACACAAAAATATAAAATAT [CACACA_site3869] | 9.29 ± 0.36
31 | AAAAGTCTCTTTTTAGTGCACATTTTATTTAAATAT | 8.7 ± 0.44
32 | CAGATAAGGTGAAGCTGTACAAAAATGTTTTATAAC [XGTACX_site6783] | 8.88 ± 0.58
33 | TGTCTTTATATATATTTATTTTTTAGTATTACATAA [CACACA_negctrl_site21] | 8.61 ± 0.47
34 | TATCTTTTTTTTAATACACACAAATTTATGAAAGTA [CACACA_site7879] | 8.54 ± 0.37
35 | ATTTTCATATTTTTATGTACATATTATAAGAATATA [XGTACX_site3691] | 8.61 ± 0.46
36 | ATGGAATATTTCATGATTTTTTTAATTTTTTTATTG [XGTACX_negctrl_site55] | 8.57 ± 0.54
37 | TTTATATCTTATTATAGGAAAATGAATATTTTCTCT [TGCATGCA_negctrl_site478] | 8.31 ± 0.56
38 | ACAAAACATATATTCTGTACATATATAATGGTGACT [XGTACX_site6796] | 8.95 ± 0.4
39 | AAAAAAGAGGGATACACACAAACATATATATATATA [CACACA_site2243] | 9.865 ± 0.0071
40 | AAGAAAATATAAATATGTACTTAATAATTTATTTAT [XGTACX_site8100] | 8.4 ± 0.45
41 | AGGATACACGGACACACACACATATATATATATATA [CACACA_site4654] | 10.43 ± 0.078
42 | TATTAAAATAACATACGTACATAAGTATATAAAAAA [XGTACX_site1769] | 8.78 ± 0.42
43 | TATATTAATTAACAGTGTACAAAAAAAAATAAAAAA [XGTACX_site3702] | 8.78 ± 0.63
44 | TTTATTTTAAAATTTACACACAAAAGGATTTATAGA [CACACA_site2338] | 8.52 ± 0.42

Row | Sequence | gcPBM binding intensity (ln)
45 | AAAATAAAAAGAAATTGTACGTATAATAATATATTT [XGTACX_site7593] | 8.77 ± 0.45
46 | TTTATTCCAGTATTCACACACGAATAACCACATAAC [CACACA_site5104] | 9.13 ± 0.29
47 | CTATACATATTATATAGTACTTTATTATTATGACTA [XGTACX_site1382] | 8.72 ± 0.36
48 | ATAATTCTTTATTATAGTACACAAACTTTCAAAACA [XGTACX_site3597] | 8.41 ± 0.35
49 | TGTATTTATAGCAATACACACATAACAATAAATATA [CACACA_site3328] | 8.95 ± 0.37
50 | TATATAAGAGGAAAAAGTACAGAAAAACAAAGAGAA [XGTACX_site2926] | 9 ± 0.49
51 | AATATCTAAAATGTGTGTACATAATATTTTTAATAT [XGTACX_site3831] | 8.89 ± 0.45
52 | GTGGTTATATATTAAGTGCATATTATAATTTTAAAC | 8.74 ± 0.32
53 | ATAGATAAAAAATTATTTATTTAGAATTTTTATGTA [CACACA_negctrl_site400] | 8.14 ± 0.52
54 | TGTATAAATAAATGCGTACACACTAATAAAAAAAAA [CACACA_site858] | 9.09 ± 0.49
55 | CAACTTTTTGAAAATTGTACATGACATATATATATA [XGTACX_site260] | 8.75 ± 0.37
56 | TTATGTAAATAATTTTGTACTTAAATTATTATATAA [XGTACX_site1491] | 8.26 ± 0.6
57 | AAAAAAAATATGATGAGTACACAATAATACATGCAA [XGTACX_site6999] | 9.07 ± 0.38
58 | TGATATTTTATTATTAAAATATATACATATATATAT [CACACA_negctrl_site1456] | 8.68 ± 0.49
59 | ATAAAAATAAAATGGACACACATATATACCTATTTG [CACACA_site5761] | 9 ± 0.4
60 | AAGAAAAAAAAAAAAAAAGATACTTTTTTAAAACTA [TGCATGCA_negctrl_site13] | 8.22 ± 0.55
61 | TTATATTTTTACAAGAGTACATATATATATATATAT [XGTACX_site5383] | 9.27 ± 0.19
62 | GTGCAATATTTATTTTGTACATATTTATCAATAAAC [XGTACX_site8297] | 8.62 ± 0.42
63 | ACATCGATTTATATTCTGCACTGAAGAAACTACAAC [GTGCAC_site9967] | 8.81 ± 0.4
64 | TCAAACCAGTTGATGTGTACACATATAGTAATAATT [XGTACX_site6014] | 9.15 ± 0.53
65 | TTTATTTGATGAACATGTACAAAAAAACAAAGAACA [XGTACX_site823] | 8.78 ± 0.49
66 | ATTAAATATATTAAATGTACATAATATATATATATA [XGTACX_site5032] | 8.89 ± 0.39

Row | Sequence | gcPBM binding intensity (ln)
67 | TATTTATACATAGGTGGTACTACTTTAAACAAAAAA [XGTACX_site5062] | 8.48 ± 0.37
68 | TATATGGAGAGATATGCACACTGTATGAATGCCCCC [CACACA_site8853] | 9.56 ± 0.3
69 | AAATAAATAATATTCACACATAAAAAAAATGGAGTT [CACACA_site4525] | 8.84 ± 0.45
70 | TATTTACACAAAATAAAATATATTATATATATATAT [TGCATGCA_negctrl_site381] | 8.69 ± 0.23
71 | TTGCACAGATTAATCAAAAATTTTAAACCAAATATA [XGTACX_negctrl_site38] | 8.43 ± 0.49
72 | AGAATAGAATAAAAAACACACATTTACAACATTATT [CACACA_site3894] | 9.04 ± 0.45
73 | GTATTTAGATGATTAACACACATATGTGTATTAATA [CACACA_site6733] | 8.88 ± 0.33
74 | ATATATTCACGTTAATGTACACATAATAAATTATAT [XGTACX_site5481] | 8.8 ± 0.35
75 | ATATATATTATTGAATGTACATAATTATTTAATAGT [XGTACX_site4971] | 8.76 ± 0.47
76 | AATTATATTGGTTGTAGTACTAAAAGTAAGTTAATG [XGTACX_site33] | 8.87 ± 0.45
77 | TATTCACTGATATGTTGTACATAAAAAAAATTAAAT [XGTACX_site6128] | 8.57 ± 0.43
78 | CACGCACGCACATACACACACATACACATATAAATA [CACACA_site6907] | 9.72 ± 0.45
79 | ATGTTGTTCATAAATATATTATTTTTAAATGTACAA [GTGCAC_negctrl_site507] | 8.4 ± 0.34
80 | CATACACCCCAACACACACACACACCCATATATAAT [CACACA_site8097] | 10.3 ± 0.37
81 | AAAAAAAAAAAAAAAAGTACATATATTATATATATA [XGTACX_site2983] | 8.48 ± 0.56
82 | TGAAAAAAGAAAAATACACACATATAATATAATATA [CACACA_site2255] | 9.02 ± 0.49
83 | TTTTTTATATTGATATTTATTAAATATGAAATGTTA [GTGCAC_negctrl_site405] | 8.1 ± 0.45
84 | TTATATAAGATATTTCGTACACATTCAAAAATTATG [XGTACX_site7375] | 8.45 ± 0.4
85 | AATAAAATATAAGGGGGTACGGAGAAAGGATACTAT [XGTACX_site7733] | 9.05 ± 0.54
86 | AAAAAAAAAATACAACAAAGTTAAATAAATAAATAA [GTGCAC_negctrl_site402] | 8.6 ± 0.56
87 | AAATAAAAGGTTGAGAGTACATTTTTGTGTATGTAT [XGTACX_site5547] | 8.8 ± 0.46
88 | ATATTTAAAAATATAGTGCAATTATTCTAATGTGTT | 8.59 ± 0.42
